The name of at least one read-out is uncertain.
What was measured:
[1] = tested on: effets β1 (augmentation de la force contractile du myocarde) de l'isoprénaline; assay: β-blocking activity: inhibition of the β1 effects of intravenous isoprenaline in anaesthetised dogs; type: in vivo, chiens; conditions: dog, inhibition given with negative sign
Procedure: (§1) Des chiens tout-venants mâles ou femelles sont anesthésiés au mébubarbital sodique (30 mg/kg I.V.) et ventilés artificiellement par une pompe Pesty RPP. Ils sont supplémentés en oxygène.
(§2) On mesure: • - la pression carotidienne systolique et diastolique • - la force contractile du myocarde.
(§3) Les signaux sont amplifiés et enregistrés sur Dynograph Beckman.
(§4) L'activité β bloquante adrénergique a été étudiée vis-à-vis des effets β1 (augmentation de la force contractile du myocarde) et des effets P2 (diminution de la pression artérielle disstolique) de l'isoprénaline administrée par voie intraveineuse.
(§5) On calcule le pourcentsge d'inhibition des effets β1 et des effets β2 de l'isoprénaline en fonction des doses (mg.kg I.V.) des différents exemples.
(§6) Les exemples sont injectés dans le veine saphène aux doses (exprimées en base) de: 0,0003 0,001 0,003 0,01 0,1 1,0 et 4,0 ou 8,0 mg.kg-1.

[2] = tested on: effets β2 (diminution de la pression artérielle diastolique) de l'isoprénaline; assay: β-blocking activity: inhibition of the β2 effects of intravenous isoprenaline in anaesthetised dogs; type: in vivo, chiens; conditions: dog, inhibition given with negative sign
Procedure: as §1, §2, §3, §4, §5, §6

[3] = tested on: rat génétiquement hypertendu: Rat OKAMOTO; assay: Antihypertensive activity in spontaneously hypertensive rats (tail-cuff systolic pressure and heart rate after oral dosing); type: in vivo
Procedure: Des rats mâles âgés de 13 à 21 semaines présentant une hypertension spontanée génétiquement transmissible (souche OKAMOTO provenance IFFA CREDO) sont placés dans une enceinte thermostatée à 38°C. Les rats sont laissés en situation libre. La pression artérielle est mesurée par un sphygmomanomètre Narco Biosystem. Un manchon est placé à la base de la queue et un détecteur enregistre le pouls en aval du manchon. Celui-ci est gonflé jusqu'à suppression du pouls il est ensuite progressivement dégonflé. La pression mesurée à la reprise des battements cardiaques est la pression artérielle systolique. On calcule la fréquence cardiaque à partir de l'enregistrement du pouls artériel. Les produits à étudiar sont mis en suspension el administrés par voie orale sous un volume de 1 ml pour 100 g de poids corporel. Les mesures sont répétées à intervalles réguliers.
Les valeurs moyennes avant traitement pour les différents lots de rats sont pour la pression artérielle systolique de 190 à 200 mmHg et pour la fréquence cardiaque de 305 à 350 battements par minute.
Le tableau III ci-après donne la moyenne des variations de la pression systolique (mmHg) de la fréquence cardisque (battements/minute) et les écarts type à la moyenne obtenus 1 heure 3 heures et 5 heures après administration orale.

Row | Compound | % d'inhibition des effets β1^(+) de l'Isoprénaline ([1]; 0,0003 mg/kg I.V.) | % d'inhibition des effets β1^(+) de l'Isoprénaline ([1]; 1,00 mg/kg I.V.) | % d'inhibition des effets β1^(+) de l'Isoprénaline ([1]; 8,00 mg/kg I.V.) | % d'inhibition des effets β2^⊕ de l'Isoprénaline ([2]; 0,0003 mg/kg I.V.) | % d'inhibition des effets β2^⊕ de l'Isoprénaline ([2]; 1,00 mg/kg I.V.) | % d'inhibition des effets β2^⊕ de l'Isoprénaline ([2]; 8,00 mg/kg I.V.) | further results
1 | CC(C)NCC(O)COc1ccc(NC(=O)Cc2cccs2)cc1Cl (stereo not shown) [exemple 44, 1-[2-chloro 4-(2-thiénylacétamido)phénoxy] 3-isopropylamino 2-propanol] | -8% | -94% | -100% | 0% | -42% | -100% | 
2 | CC(C)(C)NCC(O)COc1ccc(NC(=O)Cc2ccsc2)cc1Br (stereo not shown) [exemple 41, 1-[2-bromo 4-(3-thiénylacétamido)phénoxy] 3-terbutylamino 2-propanol] |  | -100% | -100% |  | -94% | -100% | 
3 | CC(C)(C)NCC(O)COc1ccc(NC(=O)Cc2cccs2)cc1F (stereo not shown) [exemple 47, 1-[2-fluoro 4-(2-thiénylscétamido)phénoxy] 3-terbutylamino 2-propanol] | -5% | -100% | -100% | -22% | -64% | -93% | 
4 | CC(C)NCC(O)COc1ccc(NC(=O)Cc2cccs2)cc1F (stereo not shown) [exemple 48, 1-[2-fluoro 4-(2-thiénylacétamido)phénoxy] 3-isopropylamino 2-propanol] | -1% | -97% | -97% | -17% | -68% | -90% | 
5 | CC(C)NCC(O)COc1ccc(NC(=O)Cc2cccs2)cc1Br (stereo not shown) [exemple 40, 1-[2-bromo 4-(2-thiénylacétamido)phénoxy] 3-isopropylamino 2-propanol] |  | -100% | -100% |  | -50% | -93% | 
6 | CC(C)NCC(O)COc1ccc(NC(=O)Cc2ccsc2)cc1Br (stereo not shown) [exemple 42, 1-[2-bromo 4-(3-thiénylacétamido)phénoxy] 3-isopropylamino 2-propanol] | -13% |  |  |  | -31% | -91% | 
7 | C=CCc1cc(NC(=O)Cc2cccs2)ccc1OCC(O)CNC(C)(C)C (stereo not shown) [exemple 11, 1-[2-allyl 4-(2-thiénylacétamido)phénoxy] 3-ter-butylamino 2-propanol] |  |  |  |  | -77% | -100% | 
8 | CC(C)(C)NCC(O)COc1ccc(NC(=O)Cc2cccs2)cc1Br (stereo not shown) [exemple 39, 1-[2-bromo 4-(2-thiénylacétamido)phénoxy] 3-terbutylamino 2-propanol] | 0% | -97% | -96% |  | -92% | -86% | 
9 | CC(C)NCC(O)COc1ccc(NC(=O)Cc2ccsc2)cc1Cl (stereo not shown) [exemple 46, 1-[2-chloro 4-(3-thiénylacétamido)phénoxy] 3-isopro-pylamino 2-propanol] | -8% |  |  |  | -62% | -100% | Fréquence cardiaque Δ (battements/min) T+1 heure m (sm) ([3]; 8 mg.kg^-1 V.O): +42 (7) battements/min; Pression systolique Δ (mmHg) T+1 heure m (sm) ([3]; 8 mg.kg^-1 V.O): -21 (5) mmHg; Fréquence cardiaque Δ (battements/min) T+5 heures m (sm) ([3]; 8 mg.kg^-1 V.O): +30 (6) battements/min; Pression systolique Δ (mmHg) T+5 heures m (sm) ([3]; 8 mg.kg^-1 V.O): -12 (5) mmHg; Fréquence cardiaque Δ (battements/min) T+1 heure m (sm) ([3]; 16 mg.kg^-1 V.O): +49 (9) battements/min; Pression systolique Δ (mmHg) T+1 heure m (sm) ([3]; 16 mg.kg^-1 V.O): -34 (6) mmHg; Fréquence cardiaque Δ (battements/min) T+5 heures m (sm) ([3]; 16 mg.kg^-1 V.O): +28 (9) battements/min; Pression systolique Δ (mmHg) T+5 heures m (sm) ([3]; 16 mg.kg^-1 V.O): -28 (7) mmHg; Fréquence cardiaque Δ (battements/min) T+1 heure m (sm) ([3]; 32 mg.kg^-1 V.O): +43 (8) battements/min; Pression systolique Δ (mmHg) T+1 heure m (sm) ([3]; 32 mg.kg^-1 V.O): -37 (6) mmHg; Fréquence cardiaque Δ (battements/min) T+5 heures m (sm) ([3]; 32 mg.kg^-1 V.O): +38 (7) battements/min; Pression systolique Δ (mmHg) T+5 heures m (sm) ([3]; 32 mg.kg^-1 V.O): -36 (6) mmHg; Fréquence cardiaque Δ (battements/min) T+1 heure m (sm) ([3]; 64 mg.kg^-1 V.O): +72 (11) battements/min; Pression systolique Δ (mmHg) T+1 heure m (sm) ([3]; 64 mg.kg^-1 V.O): -40 (7) mmHg; Fréquence cardiaque Δ (battements/min) T+5 heures m (sm) ([3]; 64 mg.kg^-1 V.O): +52 (9) battements/min; Pression systolique Δ (mmHg) T+5 heures m (sm) ([3]; 64 mg.kg^-1 V.O): -44 (5) mmHg
10 | CC(C)NCC(O)COc1ccc(NC(=O)Cc2ccsc2)cc1C#N (stereo not shown) [exemple 10, 1-[2-cyano 4-(3-thiénylacétamido)phénoxy] 3-isopropylamino 2-propanol] | -14% | -95% | -100% | -8% | -76% | -87% | 
11 | CC(C)NCC(O)COc1ccc(NC(=O)Cc2cccs2)cc1C#N (stereo not shown) [exemple 8, 1-[2-cyano 4-(2-thiénylacétamido)phénoxy] 3-isopropylamino 2-propanol] |  | -86% | -100% |  | -16% | -100% | 
12 | CC(C)(C)NCC(O)COc1ccc(NC(=O)Cc2cccs2)cc1C#N (stereo not shown) [exemple 7, 1-[2-cyano 4-(2-thiénylacétamido)phénoxy] 3-terbutylamino 2-propanol] |  |  |  |  | -88% | -100% | 
13 | CC(C)(C)NCC(O)COc1ccc(NC(=O)Cc2cccs2)cc1Cl (stereo not shown) [exemple 43, 1-[2-chloro 4-(2-thiénylacétamido)phénoxy] 3-terbutylamino 2-propanol] | 0% |  |  |  | -94% |  | 
14 | C=CCc1cc(NC(=O)Cc2ccsc2)ccc1OCC(O)CNC(C)(C)C (stereo not shown) [exemple 38, 1-[2-allyl 4-(3-thiénylacétamido)phénoxy] 3-terbutylamino 2-propanol] | 0% |  |  |  | -77% | -100% | 
15 | CC(C)(C)NCC(O)COc1ccc(NC(=O)Cc2ccsc2)cc1Cl (stereo not shown) [exemple 45, 1-[2-chloro 4-(3-thiénylacétamido)phénoxy] 3-terbutylamino 2-propanol] | -12% |  | 100% | -10% | -76% | -100% | 
16 | CC(C)(C)NCC(O)COc1ccc(NC(=O)Cc2ccsc2)cc1C#N (stereo not shown) [exemple 9, 1-[2-cyano 4-(3-thiénylacétamido)phénoxy] 3-terbutylamino 2-propanol] |  |  |  |  | -100% | -100% | 
